Laboratory results taken from PubChem BioAssay AID1159614 (National Center for Advancing Translational Sciences (NCATS), 2016).
About 65 (0.1%) of roughly 45,000 compounds were called active. Calls follow the shape of the dose curve; as a rule, active = well fitted activation curve with a large enough effect; inconclusive = small, poorly fitted or top-dose-only effect; inactive = no such curve, though single readings can be large or run the other way. The list shows a part of the results.

These compounds were tested against Galactocerebrosidase (Homo sapiens) (UniProt P54803) (assay: A Novel Cell-Based Assay to Identify Small Molecules for B -Galactocerebrosidase). Settings: 145M-Twi-hGALC-G270D cells (Twitcher mouse brain line with human GALC G270D), HMU-beta-Gal fluorescence, 48 h; series mostly up to 57.5 µM; activation: at the top concentration.
Method in brief: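 Fluorescence readout: HMU-β-gal cleavage by mutant GALC (0.1 mM final, citrate/phosphate pH 5.2 with 1 mg/mL taurocholate), stopped with carbonate/bicarbonate plus Triton X-100. Cells: murine Twitcher 145M-Twi expressing human G270D GALC; qHTS for activators.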
Also: 0% is about no effect; nearly all actives have a fitted effect of over 65% in size.

UniProt P54803, sequence (P54803 whole entry, looked up): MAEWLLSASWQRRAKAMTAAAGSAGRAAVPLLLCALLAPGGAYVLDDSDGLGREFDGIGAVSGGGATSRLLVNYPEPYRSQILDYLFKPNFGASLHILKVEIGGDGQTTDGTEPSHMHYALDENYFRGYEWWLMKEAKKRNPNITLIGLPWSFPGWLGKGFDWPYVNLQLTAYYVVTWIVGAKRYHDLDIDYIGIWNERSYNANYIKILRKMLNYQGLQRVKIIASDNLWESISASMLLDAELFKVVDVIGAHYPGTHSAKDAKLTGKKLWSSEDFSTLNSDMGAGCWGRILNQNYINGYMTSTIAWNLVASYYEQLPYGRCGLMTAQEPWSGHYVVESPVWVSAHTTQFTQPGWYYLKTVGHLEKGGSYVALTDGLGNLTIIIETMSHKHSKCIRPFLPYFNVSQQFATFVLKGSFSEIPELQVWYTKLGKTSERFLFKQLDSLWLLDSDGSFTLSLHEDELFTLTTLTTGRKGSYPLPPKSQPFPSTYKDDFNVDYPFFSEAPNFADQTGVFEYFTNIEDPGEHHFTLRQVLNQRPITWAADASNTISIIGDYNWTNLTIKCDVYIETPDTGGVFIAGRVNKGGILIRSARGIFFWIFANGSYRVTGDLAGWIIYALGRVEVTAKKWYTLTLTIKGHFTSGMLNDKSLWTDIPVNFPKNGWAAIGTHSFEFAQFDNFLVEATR

Row | Structure (SMILES) | activation
1 | CCN(C(=O)CSc1nc2ccccc2n1CC(=O)N(C)C1CCCCC1)c1ccccc1 | inactive: -5.11%
2 | CCC1CCCCN1C(=O)CSc1nnc(-c2ccc(OC)c(OC)c2)o1 (configuration not stated) | inactive: -12.3%
3 | Cc1ccc2nc(-c3cccs3)c(Nc3ccc4c(c3)OCCO4)n2c1 | inactive: -8.12%
4 | O=C(Cn1cc(S(=O)(=O)N2CCCC2)c(S(=O)(=O)N2CCCC2)c1)Nc1ccc(F)cc1 | inactive: -17.6%
5 | Cc1cc(-c2ccccc2)nnc1NCCN1CCOCC1 | inactive: -2.59%
6 | CCOC(=O)c1ccc(NC(=O)N2CC3CCCN3c3ccccc32)cc1 (configuration not stated) | inactive: -13.3%
7 | CCOC(=O)N1CCN(Cc2nc3cc(NC(=O)c4ccccc4Cl)ccc3n2C(C)C)CC1 | inactive: 19.4%
8 | COc1ccccc1NC(=O)CSc1cn(CC(=O)N2CCCC2)c2ccccc12 | inactive: -21.2%
9 | CC(=O)c1cccc(NC(=O)CCc2c(C)nc3nc(CN)nn3c2C)c1 | inactive: -12.3%
10 | CC(=O)N1CCc2c(sc3c2c(=O)n(-c2ccccc2Cl)c(=O)n3Cc2cccc(C)c2)C1 | inactive: -19.8%
11 | CN(C)c1ncc(C(=O)NCc2ccc(Cl)cc2)cn1 | inactive: -13.2%
12 | COc1ccccc1NC(=O)C1=C(C)Nc2nc3ccccc3n2C1c1ccccc1Cl (configuration not stated) | inactive: -7.42%
13 | O=C(Cn1cc(C(=O)c2ccco2)c2ccccc21)Nc1ccccc1 | inactive: -19.5%
14 | CCOc1ccc(N2CC(C)Cn3c2nc2c3c(=O)n(Cc3c(F)cccc3Cl)c(=O)n2C)cc1 (configuration not stated) | inactive: -9.15%
15 | CCOc1ccc(NC(=O)c2ccc(F)c(S(=O)(=O)N(Cc3ccc(C(=O)OC)cc3)Cc3ccc(OC)c(OC)c3)c2)cc1 | inactive: -9.3%
16 | COc1ccc(Cl)cc1Nc1ccc2cc(S(=O)(=O)N3CCCCC3)ccc2n1 | inactive: -15.2%
17 | CCC(=O)N1CCc2cc(S(=O)(=O)NCc3ccc(C)cc3)ccc21 | inactive: -28.7%
18 | Cc1cc2n(n1)CCCN2C(=O)Nc1ccc(F)c(Cl)c1 | inactive: -4.21%
19 | CCOCCc1nnc(NC(=O)C(=O)c2cc(C)n(-c3ccc(Cl)cc3)c2C)s1 | inactive: -12%
20 | Cc1cc(OCC(=O)N2CCC(c3nc4ccccc4s3)CC2)ccc1Cl | inactive: -16.1%
21 | O=C(CSc1ncc(-c2ccccc2)[nH]1)Nc1cccc(Br)c1 | inactive: -8.98%
22 | NC(N)=Nc1nc(CSCC/C(N)=N/S(N)(=O)=O)cs1 | inactive: -16%
23 | COc1cc2nc(NC(=O)c3ccc(S(=O)(=O)N4CCc5ccccc54)cc3)sc2cc1OC | inactive: -27.6%
24 | COc1cccc(-n2c(C)nc3cc(C(=O)O)ccc32)c1 | inactive: -20.1%
25 | CC1CCCCN1C(=O)c1ccc2c(c1)N(Cc1ccc(F)cc1)C(=O)c1ccccc1S2(=O)=O (configuration not stated) | inactive: -1.94%
26 | CCN(CCCNC(=O)c1cc2c(=O)n(CC)c3ccccc3c2s1)Cc1ccccc1 | inactive: -3.84%
27 | COc1cccc(-c2nc3c(C#N)c[nH]n3c2NC2CCCC2)c1OC | inactive: -12.3%
